# In all, about 220,000 compounds went through this assay and about 2,300 (1%) were called active. Another 6% or so got no clear call; they are omitted. The call rests on the fitted dose curve; in most records, active means well fitted inhibition curve with a large enough effect; inconclusive means small, poorly fitted or top-dose-only effect, or effect the other way; inactive means no such curve, though single readings can be large or run the other way. This is a selection; strong and weak results do not stand in their true shares.
# Biological target: Neuropeptide S receptor (Homo sapiens) (UniProt Q6W5P4)
# Assay: qHTS Assay for Antagonists of the Neuropeptide S Receptor: cAMP Signal Transduction; further: nearly all actives have a fitted effect of over 50% in size
# Conditions: CHO-NPSR cells, cAMP TR-FRET, antagonist mode; series mostly up to 38.3 µM; activity change, negative = inhibition: at the top concentration
# From the text: NIH Chemical Genomics Center [NCGC] NIH Molecular Libraries Probe Production centers Network [MLPCN] MLPCN Grant: X01-DA026210-01 Assay Submitter (PI): Heilig, Markus Alexander NCGC Assay Overview: Neuropeptide S receptor (NPSR), previously known as GPR154, is a recently de-orphanized G protein coupled receptor. Its endogenous ligand is the 20 amino acids peptide Neuropeptide S (NPS). […] NPS and its receptor are found in various tissues. Specifically they are highly expressed in brain areas that have been implicated in modulation of arousal, stress and anxiety. Central administration of NPS in mice produces an unusual profile of activity by inducing wakefulness and arousal, while at the same time suppressing anxiety. Therefore, NPSR may represent a novel drug target for the treatment of sleep and anxiety disorders. To identify NPSR antagonists, we developed a cell-based cAMP assay. NPS can stimulate the production of cAMP in Chinese hamster ovary cells stably expressing NPS receptor. This change in intracellular cAMP level can be detected by a homogeneous LANCE cAMP assay based on the TR-FRET (time resolved fluorescence resonance energy transfer) between a europium-labeled cAMP tracer complex and a cAMP-specific antibody labeled with Alexa Fluor 647. The europium-labeled cAMP tracer complex is formed by the tight interaction between Biotin-cAMP (b-cAMP) and streptavidin labeled with Europium-W8044 chelate (Eu-SA). Light pulse at 320 nm excites the europium of the cAMP tracer and the energy emitted is transferred to the Alexa molecule bound to the cAMP antibody, generating a TR-FRET signal at 665 nm. Residual energy from the europium will produce a light at 620 nm. The native unlabeled cAMP from cell lysates competes with the europium-cAMP tracer for antibody binding and reversely reduces the emission signal of Alexa by interrupting FRET between the two labeled molecules. Both emission signals from the FRET donor (620 nm) and the acceptor (665 nm) can be detected by a plate reader in the TRF mode. Expression of result in fluorescence ratio (665 nm/620 nm) helps to normalize differences due to cell density and reagent dispensing. This assay was successfully optimized to a 1536-well plate format.
# NCGC Assay Protocol Summary: A Chinese hamster ovary (CHO) cell line stably expressing the NPS receptor (CHO-NPSR) was obtained from Dr. Heilig lab at NIAAA and maintained in F-12 Kaighn's media (Invitrogen, Carlsbad, CA, 21127) supplemented with 10 % FBS, 100 units/ml penicillin, 100 ug/ml streptomycin and 250 ug/ml geneticin at 37C, 5% CO2 in a humidified atmosphere. Before the assay, aliquots of cells were frozen and stored at -135C. The assay was performed in 1536-well format. Data are reported for both the ratio of the two emission wavelengths, and also for the component 'donor' channel, Em2=620. Data were normalized to the controls for basal activity (DMSO only) and 100% inhibition (No NPS control). IC50 values were determined from concentration-response data modeled with the standard Hill equation. NPS 1536-well assay protocol: (1) Fresh or frozen CHO-NPSR cells were suspended in F-12 Kaighn's media supplemented with 10 % FBS, 100 units/ml penicillin and 100 ug/ml streptomycin. Cells were plated at 4 ul/well (1200 cells) to white, tissue culture treated 1536-well plates, and then cultured at 37C, 5 % CO2 for 16 to 30 hours. (2) Add 23 nl/well of compound in DMSO solution. The final titration for each compound was between 0.6 nM and 46 uM. (3) Add 1 ul of stimulation reagent (1X HBSS buffer, 5 mM HEPES, 0.1% BSA, 500 uM RO-201724 (Sigma-Aldrich, B8279), 1.5% Alexa 647-labeled anti-cAMP antibody (from Perkin Elmer), 100 nM NPS) (4) Incubation at 37C, 5 % CO2 for 60 min. (5) Add 1 ul/well detection reagent. Detection reagent was prepared by adding biotin labeled cAMP (4%), streptavidin labeled with Europium-W8044 chelate (1.33%) and TritonX-100 (1%) to detection buffer. […]
# On the % scale 0 is the no-effect control and ±100 the full control effect; potency means the concentration at half of the fitted maximal effect.
# UniProt Q6W5P4, sequence (Q6W5P4 whole entry, looked up): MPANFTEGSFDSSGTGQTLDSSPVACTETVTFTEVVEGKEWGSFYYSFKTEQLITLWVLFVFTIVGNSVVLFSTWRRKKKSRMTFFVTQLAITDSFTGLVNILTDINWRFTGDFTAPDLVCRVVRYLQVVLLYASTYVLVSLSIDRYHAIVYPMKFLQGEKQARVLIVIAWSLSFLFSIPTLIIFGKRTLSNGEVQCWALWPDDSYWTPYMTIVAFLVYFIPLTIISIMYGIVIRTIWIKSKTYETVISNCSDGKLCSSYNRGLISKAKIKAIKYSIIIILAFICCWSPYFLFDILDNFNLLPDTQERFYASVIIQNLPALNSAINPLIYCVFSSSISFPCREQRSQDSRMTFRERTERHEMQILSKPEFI
SMILES,"activity change, negative = inhibition",Potency
CC(=O)n1cc([C@H]2C=C(C(=O)N3CCN(Cc4ccc5c(c4)OCO5)CC3)O[C@@H](OCc3ccc(CO)cc3)C2)c2ccccc21,inactive: 53.1%,–
CC1CC2C3CCC4=CC(=O)C=CC4(C)C3(F)C(O)CC2(C)C1(O)C(=O)CO (stereo not given),inactive: 27.7%,–
O=C(c1cccs1)N1CCc2c([nH]c3ccccc23)C1c1ccc(Cl)cc1 (stereo not given),–,active: 10 µM
CCN1C/C(=C\c2cccc([N+](=O)[O-])c2)C(=O)/C(=C/c2cccc([N+](=O)[O-])c2)C1,inactive: -49.7%,–
O=C(CNC(=O)/C(=C/c1ccccc1)NC(=O)c1ccc(Br)cc1)OCc1ccccc1,inactive: 1.43%,–
C[N+](C)(C)CCCCCC[N+](C)(C)C,inactive: -5.72% [at 46.1 µM],–
Cc1oncc1C(=O)Nc1ccc(C(F)(F)F)cc1,inactive: 3.6%,–
CSc1ccc2c(c1)C(N1CCN(C)CC1)Cc1ccccc1S2 (stereo not given),inactive: 10.2% [at 46.1 µM],–
Cc1cc(C(C)(C)C)c(O)c(C)c1CC1=NCCN1,inactive: 3.91% [at 46.1 µM],–
CN(C)CCCN1c2ccccc2Sc2ccccc21,inactive: -24.1% [at 46.1 µM],–
Nc1ccn([C@@H]2O[C@H](CO)[C@@H](O)C2O)c(=O)n1 (stereo not given in full),inactive: 15.9%,–
CC[C@H](NC(=O)c1c(C)c(-c2ccccc2)nc2ccccc12)c1ccccc1,inactive: -51.5%,–
CCCC1O[C@@H]2C[C@H]3[C@@H]4CCC5=CC(=O)C=C[C@]5(C)[C@H]4[C@@H](O)C[C@]3(C)[C@]2(C(=O)CO)O1 (stereo not given in full),inactive: -22.7%,–
CC(C)c1ccc(-c2c(C#N)c(N)nc(SCC(=O)N3CCCCC3)c2C#N)cc1,–,active: 10 µM
CCO[C@H]1OC(C(=O)N2CCN(Cc3ccc4c(c3)OCO4)CC2)=C[C@@H](C2CCCCC2)[C@@H]1CCCO,inactive: 55.6%,–
CCCCCC(O)c1cccc(OCc2ccc3ccccc3n2)c1 (stereo not given),inactive: -34.9%,–
CCCCNc1cc(C(=O)O)cc(S(N)(=O)=O)c1Oc1ccccc1,inactive: -53.6%,–
CCN1/C(=C\c2ccc3cc(C)ccc3[n+]2CC)Sc2cc(C)c(C)cc21,inactive: -25.2%,–
NC(=O)OCC(COC(N)=O)c1ccccc1,inactive: -56.6%,–
C#Cc1ccc([C@H]2C=C(C(=O)N3CCN(Cc4ccc5c(c4)OCO5)CC3)O[C@@H](OCC)[C@@H]2CCCO)cc1,inactive: 59.4%,–
CC(C)C[C@H](NC(=O)c1[nH]cnc1C(=O)N[C@H](C)c1ccccc1)C(=O)OCc1ccccc1,inactive: 54.2%,–
CC(C)OC(=O)C(C)(C)Oc1ccc(C(=O)c2ccc(Cl)cc2)cc1,inactive: -43.5%,–
O=C(NCc1nc2ccccc2[nH]1)C1=C[C@@H](c2ccc(Br)cc2)C[C@@H](OCc2ccc(CO)cc2)O1,inactive: 35.7%,–
COc1ccc(Cl)cc1-c1n[nH]c(=S)o1,–,active: 6.31 µM
C#CCNC(=O)C1=C[C@@H](c2csc3ccccc23)C[C@@H](OCc2ccc(CO)cc2)O1,inactive: 51.7%,–

# From PubChem BioAssay AID1461 (National Center for Advancing Translational Sciences (NCATS), 2008)
